# Assay results: the supplement of paper PMC8728848
# The other results are listed elsewhere or left out.
# B1: Clec49 (Caenorhabditis elegans) (protein)
# chain: MTRLTLLLFGLLGAATAQTCNTGGIYNEQFNRCYQYFTAPAQFSFAEQQCNLLGGHLASVQNGQENALLQSNAANSFKRSNYSDYWIGATDLETSGTWKWTDPSVTFDYSNWQLGEPQSGSDCAIQDKGDGTWSAIGCTSYRPYVCVTPVIMTATCPPITTPIPTTCPTPAPCPIKQCVPSCDQGWTYFSPTDFCYRVYHGEKFNDAEASCVLLGGHLASIHSLTENTFVNNIASCGIKEGKYEHLAWIGMRKVGQDWVWTDGTPSDYFNWAPKQPDNPKKELCVQTAPDLSHDKWYENWNNLECNEVMRAYICKKASIHN
# Assays:
# Experiment in all cases: glycan array binding signal (z-score within array); higher = stronger binding
# Settings in all cases: glycan notation: IUPAC condensed, linker removed
# [1] = target: GalNAc(b1-4)GlcNAc(b1-2)Man
# In short: (§1)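 Columns mapping to the same glycan were averaged after glycan names were converted to IUPAC-condensed notation. The data come from 3228 arrays in the Consortium for Functional Glycomics database, limited to those with an available protein sequence. Binding is reported as a within-array Z-score averaged across arrays of one protein sequence and across linkers.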
# [2] = target: GalNAc(b1-4)GlcNAc(b1-2)Man(a1-3)[GalNAc(b1-4)GlcNAc(b1-2)Man(a1-6)]Man(b1-4)GlcNAc(b1-4)GlcNAc
# In short: as §1
# [3] = target: GalNAc(b1-4)GlcNAc(b1-3)GalNAc(b1-4)GlcNAc
# In short: as §1
# [4] = target: GalNAc(b1-4)GlcNAc6S
# In short: as §1
# [5] = target: GalNAc(b1-6)GalNAc
# In short: as §1
# [6] = target: GalNAc3S(b1-4)GlcNAc
# In short: as §1
# [7] = target: GalNAc3S(b1-4)GlcNAc3S
# In short: as §1
# [8] = target: GalNAc3S(b1-4)[Fuc(a1-3)]GlcNAc
# In short: as §1
# [9] = target: GalNAc4S6S(b1-4)GlcNAc
# In short: as §1
# [10] = target: GalNAc6S(b1-4)GlcNAc
# In short: as §1
# [11] = target: Glc(a1-4)Glc
# In short: as §1
# [12] = target: Glc(a1-4)Glc(a1-4)Glc(a1-4)Glc
# In short: as §1
# [13] = target: Glc(a1-6)Glc(a1-6)Glc
# In short: as §1
# [14] = target: Glc(a1-6)Glc(a1-6)Glc(a1-6)Glc
# In short: as §1
# [15] = target: Glc(b1-4)Glc
# In short: as §1
# [16] = target: Glc(b1-6)Glc
# In short: as §1
# [17] = target: GlcA(b1-3)Gal
# In short: as §1
# [18] = target: GlcA(b1-3)GlcNAc
# In short: as §1
# [19] = target: GlcA(b1-6)Gal
# In short: as §1
# [20] = target: GlcA3S(b1-3)Gal(b1-4)GlcNAc(b1-2)Man
# In short: as §1
# [21] = target: GlcA3S(b1-3)Gal(b1-4)GlcNAc(b1-3)Gal(b1-4)Glc
# In short: as §1
# [22] = target: GlcNAc(a1-3)Gal(b1-4)GlcNAc
# In short: as §1
# [23] = target: GlcNAc(a1-4)Gal(b1-3)GlcNAc
# In short: as §1
# [24] = target: GlcNAc(a1-4)Gal(b1-4)GalNAc
# In short: as §1
# [25] = target: GlcNAc(a1-4)Gal(b1-4)GlcNAc
# In short: as §1
# [26] = target: GlcNAc(a1-4)Gal(b1-4)GlcNAc(b1-3)Gal(b1-4)Glc
# In short: as §1
# [27] = target: GlcNAc(a1-4)Gal(b1-4)GlcNAc(b1-3)Gal(b1-4)GlcNAc
# In short: as §1
# [28] = target: GlcNAc(a1-4)Gal(b1-4)GlcNAc(b1-3)Gal(b1-4)GlcNAc(b1-3)Gal(b1-4)GlcNAc
# In short: as §1
# [29] = target: GlcNAc(a1-4)Gal(b1-4)GlcNAc(b1-3)Gal(b1-4)[Fuc(a1-3)]GlcNAc(b1-3)Gal(b1-4)[Fuc(a1-3)]GlcNAc
# In short: as §1
# [30] = target: GlcNAc(a1-6)Gal(b1-4)GlcNAc
# In short: as §1
# [31] = target: GlcNAc(b1-2)Gal(b1-3)GalNAc
# In short: as §1
# [32] = target: GlcNAc(b1-2)Man(a1-3)[GlcNAc(b1-2)Man(a1-6)]Man(b1-4)GlcNAc(b1-4)GlcNAc
# In short: as §1
# [33] = target: GlcNAc(b1-2)Man(a1-3)[GlcNAc(b1-2)Man(a1-6)]Man(b1-4)GlcNAc(b1-4)[Fuc(a1-6)]GlcNAc
# In short: as §1
# [34] = target: GlcNAc(b1-2)Man(a1-3)[GlcNAc(b1-4)][GlcNAc(b1-2)Man(a1-6)]Man(b1-4)GlcNAc(b1-4)GlcNAc
# In short: as §1
# [35] = target: GlcNAc(b1-2)Man(a1-3)[GlcNAc(b1-4)][GlcNAc(b1-2)Man(a1-6)]Man(b1-4)GlcNAc(b1-4)[Fuc(a1-6)]GlcNAc
# In short: as §1
# [36] = target: GlcNAc(b1-2)[GlcNAc(b1-4)]Man(a1-3)[GlcNAc(b1-2)Man(a1-6)]Man(b1-4)GlcNAc(b1-4)GlcNAc
# In short: as §1
# [37] = target: GlcNAc(b1-2)[GlcNAc(b1-4)]Man(a1-3)[GlcNAc(b1-4)][GlcNAc(b1-2)Man(a1-6)]Man(b1-4)GlcNAc(b1-4)GlcNAc
# In short: as §1
binder,measurement,setting,value
B1,glycan array binding signal (z-score),[1],0.428
same,glycan array binding signal (z-score),[2],-0.185
same,glycan array binding signal (z-score),[3],-0.004
same,glycan array binding signal (z-score),[4],-0.36
same,glycan array binding signal (z-score),[5],-0.155
same,glycan array binding signal (z-score),[6],-0.354
same,glycan array binding signal (z-score),[7],-0.314
same,glycan array binding signal (z-score),[8],0.161
same,glycan array binding signal (z-score),[9],0.432
same,glycan array binding signal (z-score),[10],-0.688
same,glycan array binding signal (z-score),[11],-0.802
same,glycan array binding signal (z-score),[12],-0.218
same,glycan array binding signal (z-score),[13],-0.347
same,glycan array binding signal (z-score),[14],-0.524
same,glycan array binding signal (z-score),[15],0.089
same,glycan array binding signal (z-score),[16],-0.529
same,glycan array binding signal (z-score),[17],0.347
same,glycan array binding signal (z-score),[18],-0.759
same,glycan array binding signal (z-score),[19],-0.321
same,glycan array binding signal (z-score),[20],-0.678
same,glycan array binding signal (z-score),[21],-0.841
same,glycan array binding signal (z-score),[22],-0.525
same,glycan array binding signal (z-score),[23],-0.232
same,glycan array binding signal (z-score),[24],-0.484
same,glycan array binding signal (z-score),[25],-0.068
same,glycan array binding signal (z-score),[26],-0.427
same,glycan array binding signal (z-score),[27],-0.142
same,glycan array binding signal (z-score),[28],-0.209
same,glycan array binding signal (z-score),[29],-0.003
same,glycan array binding signal (z-score),[30],0.015
same,glycan array binding signal (z-score),[31],-0.168
same,glycan array binding signal (z-score),[32],-0.129
same,glycan array binding signal (z-score),[33],0.606
same,glycan array binding signal (z-score),[34],-0.576
same,glycan array binding signal (z-score),[35],0.223
same,glycan array binding signal (z-score),[36],0.155
same,glycan array binding signal (z-score),[37],-0.628
